# Out of some 45,000 compounds screened, about 200 (0.44%) were called active. Inconclusive results (about 7%) are left out. The call rests on the fitted dose curve; in most records, active means well fitted activation curve with a large enough effect; inconclusive means small, poorly fitted or top-dose-only effect; inactive means no such curve, though single readings can be large or run the other way. The list shows a part of the results.
# Assay: qHTS of TDP-43 Inhibitors: NCGC Sytravon Library Screen; further: 0% is about no effect; nearly all actives have a fitted effect of over 55% in size
# Settings: yeast TDP-43 toxicity rescue, BacTiter-Glo growth, 24 h; series mostly up to 46.1 µM; growth rescue (activation): at the top concentration
# Procedure, shortened: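 TDP-43-expressing yeast, pregrown in raffinose, seeded at OD600 0.02 in galactose medium with compound for 24 hr at 30 deg C. Growth read by BacTiter-Glo luminescence, so rescue of toxicity appears as activation.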
row,SMILES,growth rescue (activation)
1,Cc1ccccc1N1CC(C(=O)N2CCc3ccccc32)CC1=O (configuration not stated),inactive: 25.4%
2,CCCCc1c(O)nc(SCC(=O)N2CCOCC2)n(-c2ccc(OC)cc2)c1=O,inactive: 5.04%
3,CCOC(=O)CN(C(=O)CSc1nnnn1C)c1ccccc1,inactive: -3.26%
4,CC(C)(C)n1ncc2c(=O)n(CC(=O)NC3CCCCC3)cnc21,inactive: 3.67%
5,COC(=O)C[n+]1cccc2ccccc21,inactive: -40.1%
6,O=C(NC(Cc1c[nH]c2ccccc12)C(=O)O)/C(=C\c1ccccc1)NC(=O)c1ccccc1 (configuration not stated),inactive: 0.437%
7,Cc1c(NC(=O)COC(=O)C2(c3ccccc3F)CCCC2)c(=O)n(-c2ccccc2)n1C,inactive: 3.53%
8,Cc1ccc(N2CC(C(=O)Nc3cccnc3)CC2=O)cc1Cl (configuration not stated),inactive: 3.96%
9,O=C(O)CN=C1CC(c2ccccc2)CC(=O)/C1=C(/O)CCCN1C(=O)c2ccccc2C1=O (configuration not stated),inactive: -5.21%
10,NS(=O)(=O)c1ccc(CNC(=O)C2CCCN2C(=O)c2cccs2)cc1 (configuration not stated),inactive: 9.58%
11,O=C(Nc1nccs1)c1ncc(Cl)c(Cl)c1Cl,inactive: 23.8%
12,O=C(OCC(=O)N1CCCC1)c1ccc(OC(F)(F)F)cc1,inactive: 3.54%
13,COc1ccc(-c2nnc(SCC(=O)N3CCCc4ccccc43)o2)cc1OC,inactive: 15.3%
14,O=C(O)c1ccc(NC(=O)c2cn(-c3ccccc3)nc2-c2ccc(Br)cc2)cc1,inactive: 5.71%
15,Cc1ccc2nc(-c3ccc(N)cc3)sc2c1,inactive: -2.49%
16,CCCCOC(=O)c1ccc(NC(=O)c2cnc3n(c2=O)CCS3)cc1,inactive: 28.2%
17,O=C(NCc1ccc2c(c1)OCO2)C1CCCN1S(=O)(=O)c1ccc(F)cc1 (configuration not stated),inactive: 30%
18,O=[N+]([O-])c1ccc(-c2cn(-c3ccccc3F)c(=S)[nH]2)cc1,inactive: 7.55%
19,C=CCn1c(SCC(=O)c2c(N)n(C)c(=O)n(C)c2=O)nnc1-c1ccccc1F,inactive: -2.62%
20,Cc1cc(NS(=O)(=O)c2ccc(NC(=O)/C=C/c3ccco3)cc2)nc(C)n1,inactive: 6.25%
21,O=C(COC(=O)CCC(=O)c1ccc(Cl)cc1)NC1CC1,inactive: -0.766%
22,COc1cc(NC(=O)C2=C(C)OCCS2)c(Cl)cc1C(=O)NCCN(C)C,inactive: -14%
23,CC1CCOC2(O1)C(=O)Nc1ccccc12 (configuration not stated),inactive: 13.8%

row,SMILES,growth rescue (activation)
1,O=C(c1cc(C2CC2)on1)N1CCCC(N2CCN(c3cccc(C(F)(F)F)c3)CC2)C1 (configuration not stated),inactive: -9.37%
2,O=C(NC(=S)NCc1cccnc1)c1cccc2ccccc12,inactive: 6.48%
3,Cc1noc(C)c1COC(=O)c1ccc(F)c(S(=O)(=O)N2CCCCC2)c1,inactive: 10.9%
4,Cc1ccccc1C(=O)NC1CCN(CC(=O)N2CCCCC2C)CC1 (configuration not stated),inactive: 20.6%
5,Cn1c(=S)n(C)c2ccccc21,inactive: 10.6%
6,CC(C)c1ccccc1NC(=O)CC1(CC(=O)O)CCCC1,inactive: -9.89%
7,CCOc1ccc(C(=O)Nc2ccc(N3CCCC3)cc2)cc1,inactive: -29.7%
8,CC(C)c1ccccc1NC(=O)COC(=O)Cc1cccc(C(F)(F)F)c1,inactive: 7.26%
9,O=[N+]([O-])c1ccc(NCc2ccncc2)cc1,inactive: 1.97%
10,COCCNc1nc(Oc2ccccc2)c2sccc2n1,inactive: 25.3%
11,O=C(CNC(=O)c1ccccc1Cl)NCCc1cccs1,inactive: 3.14%
12,Cc1sc2ncnc(SCc3ccco3)c2c1C,inactive: 21.5%
13,CCOC(=O)CSc1nc(-c2ccccn2)ncc1OC,inactive: 4.66%
14,CC1CCCN(c2nc(NCc3ccco3)nc(N)c2[N+](=O)[O-])C1 (configuration not stated),inactive: 32.1%
15,O=C(NCCCN1CCCC1)c1cc2c(Cl)nc3ccccc3c2s1,inactive: -2.65%
16,COc1cc(NC(=O)c2cc(-c3ccco3)on2)cc(OC)c1OC,inactive: -4.17%
17,c1ccc(Cn2nc(-c3ccccc3)nc2-c2ccccc2)cc1,inactive: 20.1%
18,O=C(COC(=O)c1ccc(F)cc1F)Nc1ccc2[nH]c(=O)[nH]c2c1,inactive: 1.3%
19,NS(=O)(=O)c1ccc(NC(=O)COC(=O)C2(c3ccc(F)cc3)CCCC2)cc1,inactive: 10.6%
20,Cc1ccc(CN2CCN(Cc3ccc(OC(C)C)cc3)CC2CCO)o1 (configuration not stated),inactive: -3.6%
21,COC(=O)c1ccccc1NC(=O)CSc1nccc(C)n1,inactive: 0.459%
22,CC(=O)Nc1ccc(NC(=O)CN2C(=O)NC3(CCCCCCC3)C2=O)cc1,inactive: 8.6%
23,O=C(NCc1ccccn1)c1ccccc1-c1ccccc1,inactive: -4.14%

row,SMILES,growth rescue (activation)
1,CC(=O)N1N=C(c2cccs2)CC1c1cccs1 (configuration not stated),inactive: 20.6%
2,CC1(C(=O)NCc2ccccc2Br)CCN1Cc1ccccc1OC(F)F (configuration not stated),inactive: -1.08%
3,CCCS(=O)(=O)NC(=O)C1(C)CCCN(C(=O)c2ccco2)C1 (configuration not stated),inactive: -0.888%
4,O=C(O)CCCN=Cc1c(O)c2ccccc2oc1=O,inactive: -11.7%
5,CCOC(=O)CC(=O)Nc1ccc(C)cc1,inactive: 18.2%
6,N#C/C(=C/c1ccc(O)c(O)c1)C(=O)NCc1ccc(Cl)cc1,inactive: -12.7%
7,CCOC(=O)c1c(NC(=O)CCN2C(=O)c3cccc([N+](=O)[O-])c3C2=O)sc(C(=O)OC(C)C)c1C,inactive: 10.4%
8,COCCCNC(=O)Cn1c(=O)n(CCCCCC(=O)NCc2ccc3c(c2)OCO3)c(=O)c2sccc21,inactive: 0.486%
9,Cc1cc(C(F)F)n2ncc(C(=O)NCc3ccc(F)cc3)c2n1,inactive: 5.9%
10,C/C(=N\NS(=O)(=O)c1ccccc1)c1ccc2c(c1)OCCO2,inactive: -7.26%
11,Cn1c(CNC(=O)c2ccco2)nnc1SCC(=O)c1ccccc1,inactive: 4.31%
12,OC(COCc1ccc(Cl)cc1)CN1CCc2ccccc2C1 (configuration not stated),inactive: -5.99%
13,COCCSc1ccccc1C(=O)Nc1cc(C)cc(C)c1,inactive: 25.6%
14,CC(C)(C)c1cc(=O)n2[nH]c(N)nc2n1,inactive: 10.6%
15,COc1ccccc1NC(=O)CC(=O)c1ccccc1,inactive: 14.3%
16,Cc1ccccc1S(=O)(=O)NC(=O)C1(C)CCN1C(=O)C(C)(C)c1ccccc1 (configuration not stated),inactive: 27.9%
17,O=C(CSc1nnc2c(n1)[nH]c1ccccc12)NC1CCCCC1,inactive: -20.7%
18,CCn1cc(CNC(=O)c2cccc([N+](=O)[O-])c2)c(C)n1,inactive: -22.4%
19,COc1ccccc1NC(=O)NC1(C(=O)N2CCOCC2)CCCCC1,inactive: 3.48%
20,C/C(=N\N1CCN(Cc2ccc(Cl)cc2)CC1)c1ccc([N+](=O)[O-])cc1,inactive: 15.8%
21,COc1ccc(CCNC(=O)C2=C(C)C(=O)OC23CCCCC3)c(OC)c1OC,inactive: 5.83%
22,O=C(O)CCN(Cc1ccccc1)S(=O)(=O)c1ccc(Cl)cc1F,inactive: -1.72%
23,O=C(Nc1ccccc1N1CCOCC1)c1ccc(OCc2cscn2)cc1,inactive: 32.7%

row,SMILES,growth rescue (activation)
1,O=C(CN1CCN(Cc2ccccc2)CC1)NCc1ccccc1Cl,inactive: -7.57%
2,Cc1c(NC(=O)COC(=O)c2cccn2C)c(=O)n(-c2ccccc2)n1C,inactive: -16%
3,CCSc1nc2ccccc2c(=O)n1C1CCOC(C)(C)C1 (configuration not stated),inactive: 15.3%
4,NC(=O)N/N=C/c1c(F)cccc1F,inactive: -15.7%
5,Cc1ccc([N+](=O)[O-])cc1S(=O)(=O)NCCc1c(C)[nH]c2c(C)cccc12,inactive: 17.7%
6,C=CCN(C(=O)c1csnn1)C(C(=O)NC(C)(C)C)c1ccncc1 (configuration not stated),inactive: 12.7%
7,Cn1ccc(NC(=O)Nc2cccc(C(F)(F)F)c2)n1,inactive: 9.59%
8,CC(=O)C1=C(O)C(=O)N(c2cccc(Br)c2)C1c1ccccc1Cl (configuration not stated),inactive: -8.71%
9,CCC(Oc1ccccc1C)C(=O)Nc1ccc(S(=O)(=O)Nc2cc(C)on2)cc1 (configuration not stated),inactive: 12.6%
10,O=C(Cn1cncc1-c1ccc([N+](=O)[O-])cc1)Nc1cccc2ccccc12,inactive: -11.5%
11,O=Cc1cnc2ccccc2c1-c1ccccc1,inactive: 3.35%
12,CC(C(=O)O)n1nnc2ccccc21 (configuration not stated),inactive: 6.61%
13,COc1ccc([N+](=O)[O-])cc1N(CC(O)CN(C)C)S(=O)(=O)c1ccc(C)cc1 (configuration not stated),inactive: 1.54%
14,O=C(CCCC(=O)NCCc1ccccc1)NCCc1ccccc1,inactive: -1.64%
15,Cc1ccc(CN(CC(=O)NCCc2ccccc2)C(=O)c2csnn2)cc1,inactive: 10.7%
16,COc1ccccc1NC(=O)CCn1cnc2ccccc2c1=O,inactive: 14.1%
17,Cc1cccc(C)c1NC(=O)C(C)Sc1n[nH]c(-c2ccncc2)n1 (configuration not stated),inactive: 1.04%
18,CC(Oc1ccc(Br)cc1)C(=O)N1CCC(C(N)=O)CC1 (configuration not stated),inactive: 4.04%
19,CCOC(=O)N1CCN(C(=S)Nc2cccc(C)c2C)CC1,inactive: 16.7%
20,CCOCc1c(C(=O)NC2CCCCCC2)oc2ccccc12,inactive: 22.4%
21,COC(=O)c1c(SCc2cccc3ccccc23)nc(=O)[nH]c1C,inactive: 21.5%
22,Cc1c(Cc2ccccc2)c(=O)oc2cc(OCC(N)=O)ccc12,inactive: -12%
23,CCCSc1nnc(N)s1,inactive: -3.47%

row,SMILES,growth rescue (activation)
1,COc1ccc(CNc2ccc([N+](=O)[O-])cn2)cc1,inactive: 8.29%
2,Cc1oc2ccc(OCc3ccc(Cl)cc3)cc2c1C(=O)O,inactive: -5.05%
3,COc1ccccc1CNC(=O)CN1NS(=O)(=O)c2ccccc2C1=O,inactive: -3.7%
4,CN(Cc1ccc(Br)cc1)CC(O)COc1cccc(Br)c1 (configuration not stated),inactive: 4.51%
5,COc1ccc(S(=O)(=O)NCC(=O)N(Cc2ccco2)C(C(=O)NC(C)(C)C)C(C)C)cc1 (configuration not stated),inactive: 8.33%
6,COCCNc1nc2nonc2nc1N1CCCC1c1nccs1 (configuration not stated),inactive: 9.4%
7,CC[n+]1c(/C=C/c2cc([N+](=O)[O-])ccc2O)ccc2ccccc21,inactive: -10.6%
8,CC(C)N1CCN(Cc2ccc3nsnc3c2)CC1CCO (configuration not stated),inactive: -1.28%
9,CCOc1c(O)ccc(C2NC(=O)N(C)C(C)=C2C(=O)OC)c1[N+](=O)[O-] (configuration not stated),inactive: -13.8%
10,Cc1cc(C(=O)NP(=O)(N2CCOCC2)N2CCOCC2)c(C)n1-c1ccc(Br)cc1,inactive: -1.81%
11,CN(C(=O)c1ccc2c(=O)n3c(nc2c1)CCCCC3)c1cccc(Cl)c1,inactive: 6.98%
12,COc1ccc(CC(=O)OCc2cc3ccccc3[nH]c2=O)cc1,inactive: 12.1%
13,NS(=O)(=O)c1ccc(NC(=O)c2ccc(OCC3CCCO3)cc2)cc1 (configuration not stated),inactive: 12.8%
14,CCN(CC)c1ccc(Nc2cc3n(c(=O)n2)CCc2cc(OC)c(OC)cc2-3)cc1,inactive: 7.53%
15,CC(=O)N1CCc2cc(NC(=O)C3(C)CCN3Cc3ccccc3OC(F)F)ccc21 (configuration not stated),inactive: 9.52%
16,CCN(Cc1ccncc1)Cc1cn[nH]c1-c1cc(OC)c(OC)c(OC)c1,inactive: -3.65%
17,CCc1nc2ccc(C(=O)NCCCn3ccnc3)cn2c1N(C)C(=O)c1cccc(OC)c1,inactive: 4.31%
18,CC1(C(=O)NS(=O)(=O)c2cccc(F)c2)CCN1C(=O)c1ccccc1 (configuration not stated),inactive: -16.8%
19,O=C(Nn1cnnc1)c1ccc([N+](=O)[O-])cc1,inactive: 4.23%
20,Cc1cccc(OCC(=O)NC(=S)Nc2ccccc2N2CCOCC2)c1,inactive: 13.8%
